Reference: the RNAGym collection of RNA variant scans (doi:10.7554/elife.90254)
Read counts are not given, so values of variants with three or more changes are uncertain.

B1: LINE1-mini (parent)
chain: GGCAGAGCUCAACACAGCGUGGCAAAGUGGCUGUGGCUAGACUGCC

Variants of: B1
Assay: self-cleavage, relative activity (ratio to wild type); higher = more cleavage; in vitro, sequencing; the parent is a self-cleaving ribozyme

Variant | self-cleavage
GGCAUAGCUCAACACAGCUUAGCAAAGCGGCUGUGGCUAGACUGUC [G5U G19U G21A U28C C45U] | 0.06
GGCAUAGCUCAACACACCGAGGCAAAGUGGCUGUGGCUAGACUGCC [G5U G17C U20A] | 0.02
GGCAUAGCUCAACACACCGUGGGAAAGUGGCAGUGGCUAGACUGCC [G5U G17C C23G U32A] | 0.02
GGCAUAGCUCAACACACCAUGUCAAAGUGGCUGUGGCUAGACUGCC [G5U G17C G19A G22U] | 0.03
GGCAUAGCUCAACACAGCGUGGCAAACUGGAUGUGGCUAGACUGCC [G5U G27C C31A] | 0.02
GGCAUAGCUCAACACAGCCUGGCAAAGCGGCUGUGGCUAGACUGCC [G5U G19C U28C] | 0.06
GGCAUAGCUCAACACAGCGUGUCACAGUGGCUGUGGCUAGACUGCC [G5U G22U A25C] | 0.02
GGCAUAGCUCAACACAACGUGGCAAAGUGGCUGUGGCUAGACUACC [G5U G17A G44A] | 0.02
GGCAUAGCUCAACACAGCGUAGCAAAGUGGCUGUGGCUAGACUGCG [G5U G21A C46G] | 0.12
GGCAUAGCUCAACACAGCGUGGCAAAGUGGCUAUGGCUAGACUGCU [G5U G33A C46U] | 0.01
GGCAUAUCUCAACACAGCGUGGCAAAGUGGCUGAUACUAUACUGCC [G5U G7U U34A G35U G36A G40U] | 0.09
GGCAUAGCUCAACACAACGUGGCAAAGUGGCUGUGGCUAGACUGAC [G5U G17A C45A] | 0.04
GGCAUAGCUCAACACAGCGUGGCAAAGUUGCUGUGGCUAGACUGCU [G5U G29U C46U] | 0.06
GGCAUAGCUCAACACAGCGUGGCAAAGUUGCUGUGGCUAGAAUGCC [G5U G29U C42A] | 0.26
GGCAUACCUCAACACAGCGUGGCAAACUGGCUGUGGGUAGACUGCA [G5U G7C G27C C37G C46A] | 0.02
GGCAUAGCUCAACACAGCGUGCCAAAGAGGCUGUGGCUAAACUGCC [G5U G22C U28A G40A] | 0.04
GGCAUAGCUCAACACAAGGUGGCAAAGAGGCUGCGGCUAGACUGAC [G5U G17A C18G U28A U34C C45A] | 0.04
GGCAUAGCUCAACACAGCGUGGCAAAGUGUCUGUGGCUGGACUGCC [G5U G30U A39G] | 0.1
GGCAUAGCUCAACACAGCGUAGCAAGGUGGCUGUGGCUAGACUGCC [G5U G21A A26G] | 0.19

Variant | self-cleavage
GGCAUAUCACAACACAGCGUGGCAAAGUGGCUGUGGCCAGACUGCC [G5U G7U U9A U38C] | 0.18
GGCAUAGCUCAACACAGCCUGGCAAGGUGGCUGUGGCUAGACUGCC [G5U G19C A26G] | 0.04
GGCAUAGCUCAACACAGCUUGGCAAAGUAGCUGUGGCUAGACUACC [G5U G19U G29A G44A] | 0.04
GGCAUAGCUCAACACAGCGUUGCAUAGUGGCUGUGGCUAGACUGCC [G5U G21U A25U] | 0.04
GGCAUAGCUCAACACACCGUGGCAAAGUGGCUGUGACUAGACUGCC [G5U G17C G36A] | 0.05
GGCAUAGCUCAACACACCGUGGCAAAGUGGCUGUGGCUAGACUACC [G5U G17C G44A] | 0.04
GGCAUAGCUCAACACAGCGUGGCAAAGUAGUUGAGGCUAGGCCGCC [G5U G29A C31U U34A A41G U43C] | 0
GGCAUAGCUCAACACAGCCUGGCAAAGUGGGUGUGGAUAGACUGCC [G5U G19C C31G C37A] | 0.03
GGCAUAGCUCAACACAGCUUGGGAAAGUGUCUGUGGCUAGACUGCC [G5U G19U C23G G30U] | 0.06
GGCAUAGCUCAACACAGCGUGACAAAGUGGCUGUGGCUUGACUGCC [G5U G22A A39U] | 0
GGCAUAGCUCAACACAGCUUGACCAAGUGGUUGUGGCUAGACUGCC [G5U G19U G22A A24C C31U] | 0.04
GGCAUAGCUCAACACAGCAUGGCAAAGUGGCUGUGGCAAGACUACC [G5U G19A U38A G44A] | 0.11
GGCAUAGCUCAACACAGCGUGACAAAGUGGCUGCGGCUAGACUGCC [G5U G22A U34C] | 0.18
GGCAUAGCUCAACACAGCGUGGCAAAAUGGCUGUGGCGAGACUGCG [G5U G27A U38G C46G] | 0.03
GGCAUAGCUCAACACAGCGUGGCAAAGUGCCUGUGUUAAGACUGCC [G5U G30C G36U C37U U38A] | 0.03
GGCAUAGCUCAACACAGCGUGGCAAAGUGGCUUUGGCUAAACGGCC [G5U G33U G40A U43G] | 0.07
GGCAUAGCUCAACACACCGUGGCAAAGUGGCUGUGGCUAGACUGCU [G5U G17C C46U] | 0.06
GGCAUAGCUCAACACAACGUGGCAAAGUGGCUGUGGAGAGACUGCC [G5U G17A C37A U38G] | 0.02
GGCAUAGCUCAACACAGCGUUGCGAAGUGGCUGUGGCUAGACUGCC [G5U G21U A24G] | 0.03

Variant | self-cleavage
GGCAUAGCUCAACACAGCGUCGCAAAGUGCCUGUGGCUAGACUGCC [G5U G21C G30C] | 0.08
GGCAUAGCUCAACACAGCGUGGCAAAGUGGCUAUUGCUAGACUGCU [G5U G33A G35U C46U] | 0.09
GGCAUAGCUCAACACAGCGUAGCUAAGUGGCCGUGUCUAGACUGCC [G5U G21A A24U U32C G36U] | 0.04
GGCAUAGCUCAACACAGCAGGGCAAAGUGGCUGUGGUUAGACUGCC [G5U G19A U20G C37U] | 0.02
GGCAUAGCUCAACACAGCAUGGGAAAGUGGCUGUGGCUAGACUGCC [G5U G19A C23G] | 0.03
GGCAUAGCUCAACACAGCGUGGCAAAGUCGCUGUGGCUAGACCGCG [G5U G29C U43C C46G] | 0.03
GGCAUAUCUCCACACAGCGUGGCAAAGUGGCUGUGGCUAGACUGCC [G5U G7U A11C] | 0.02
GGCAUAUCUCUACACAGCGUGGCAAAGUGGCUGUGGCUAGACUGCC [G5U G7U A11U] | 0.01
GGCAUAGCUCAACACAGCGUUGCAAAGUGGCUGUGGCUAGACUGCA [G5U G21U C46A] | 0.05
GGCAUAGCUCAACACAGCGUUGCAAACUGGCUGUGGCUAGACUGCC [G5U G21U G27C] | 0.23
GGCAUAUCUCAACACAGUGUGGCAAAGUGCCUGUGGUUAGACUGCC [G5U G7U C18U G30C C37U] | 0.74
GGCAUAGCUCAACACAGCGUGGCAAAGUGUCUGUGCCUAGACUGCC [G5U G30U G36C] | 0.17
GGCAUAUCUCGACACAGCGUGGCAAAGUGGCUGUGGCUACACUGCC [G5U G7U A11G G40C] | 0
GGCAUAUCUCAACACACCGUGGAAAAGUGGCUGUGGCUAGACUGCC [G5U G7U G17C C23A] | 0.03
GGCAUAUCUCAACUCAGCGUGGCAAAGUGGCUGUGGCUAGACUGAC [G5U G7U A14U C45A] | 0.33
GGCAUAGCUCAACACAGCUUGGCAAAGUGGCUGUAGCUAGACUGCC [G5U G19U G35A] | 0.1
GGCAUAGCUCAACACAACGUGGCACAGUGGCUGUGGCUACUCUGCC [G5U G17A A25C G40C A41U] | 0.03
GGCAUACCUCAACACAGCGUGUCAAAGUGGCUGUUGCUAGACUGCC [G5U G7C G22U G35U] | 0.14
